Screen size: about 110,000 compounds; about 230 (0.21%) showed an effect of 50% or more. The list shows a part of the results.
Molecular target: DPAP1 (Plasmodium falciparum, UniProt Q8IIJ9)
Assay: primary screen, percent inhibition; read by cleavage of a fluorogenic dipeptide substrate; higher = more effect of the substance
Parameters: species or system P. falciparum D10 trophozoite lysates; single well
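Further: 30 min substrate incubation versus DMSO and 10 µM JCP410 controls.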

Sequence of DPAP1 (Q8IIJ9 whole entry, looked up): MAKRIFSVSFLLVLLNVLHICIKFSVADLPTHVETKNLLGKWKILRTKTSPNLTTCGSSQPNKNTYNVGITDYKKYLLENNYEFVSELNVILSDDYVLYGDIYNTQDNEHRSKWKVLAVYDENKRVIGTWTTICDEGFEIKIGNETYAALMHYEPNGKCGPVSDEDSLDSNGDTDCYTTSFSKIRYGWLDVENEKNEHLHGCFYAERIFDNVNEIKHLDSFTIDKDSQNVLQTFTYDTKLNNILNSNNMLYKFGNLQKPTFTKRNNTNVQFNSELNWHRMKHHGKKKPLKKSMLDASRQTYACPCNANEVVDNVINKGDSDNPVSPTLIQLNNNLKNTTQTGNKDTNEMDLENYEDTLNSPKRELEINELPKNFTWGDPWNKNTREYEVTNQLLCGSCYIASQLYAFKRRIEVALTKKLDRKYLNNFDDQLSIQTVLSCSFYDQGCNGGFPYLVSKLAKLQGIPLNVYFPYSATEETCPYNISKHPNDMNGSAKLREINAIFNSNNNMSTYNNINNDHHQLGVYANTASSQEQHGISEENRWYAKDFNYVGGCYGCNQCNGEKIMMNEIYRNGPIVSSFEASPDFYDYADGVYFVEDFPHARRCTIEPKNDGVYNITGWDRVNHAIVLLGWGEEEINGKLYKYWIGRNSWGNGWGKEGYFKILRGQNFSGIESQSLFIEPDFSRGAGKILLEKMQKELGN

Compound	% Inhibition @ 10 uM
CCC1CCCCN1S(=O)(=O)c1ccc(NC(=O)COc2c(C)cccc2C)cc1 (stereo not shown)	-1.52%
COc1ccc2c(CNCC3CCCO3)c(C(=O)O)n(Cc3ccc(F)cc3Cl)c2c1 (stereo not shown)	7.19%
Cc1ccc(Cl)c(OCC(O)CN(CCO)CCO)c1 (stereo not shown)	-10.1%
c1csc(-c2csc(Cc3nc(-c4cccs4)cs3)n2)c1	3.27%
N#C/C(=C/c1cccc(Cl)c1)c1nc(-c2ccccc2)cs1	5.85%
CCC(C)c1ccc(NS(=O)(=O)c2ccc(OC)cc2)cc1 (stereo not shown)	2.22%
CC1CCN(S(=O)(=O)c2ccc(NC(=O)c3ccc(C(C)(C)C)cc3)cc2)CC1	8.1%
CCN(CC)CCc1c(O)n(C)c(=O)n(C)c1=O	2.58%
COc1ccc(C(=O)Nc2cccc(C(=O)O)c2)cc1	1.63%
CCN(Cc1ccncc1)S(=O)(=O)c1ccc(Cl)cc1	-5.65%
O=S(=O)(c1ccc(Cl)cc1)c1cnc2cc3c(cc2c1N1CCCCC1)OCCO3	-7.13%
CCCCNC(=O)CSCc1nc(-c2ccccc2Cl)oc1C	-2.85%
COc1cc(Cc2nnc(C(=O)NCCO)o2)cc(OC)c1OC	-0.602%
CC1(C)CC2=Nc3ccccc3NC(c3cccnc3)C2=C(O)C1 (stereo not shown)	-6.08%
COc1cccc(N(CC(=O)Nc2c(C)cccc2C)S(C)(=O)=O)c1	4.56%
C/C(=N\NC(N)=S)c1ccccc1O	16.9%
CCCN(CCC)c1nc2ccc(C(=O)c3ccccc3)cc2n2c(C)nnc12	-10.3%
Cc1nn(CCC(=O)NCc2ccccc2)c(=O)c2nn(-c3ccccc3)c(C)c12	1.26%
Cc1ccc(Cn2c(-c3ccco3)nc3ccccc32)cc1	7.28%
CCOC(=O)/N=C(/N[C@@H](CC(C)C)C(=O)NCC#N)c1ccc(Br)cc1	-3.48%
CCC(C)Nc1nc2ccccc2n2c(C)nnc12 (stereo not shown)	-3.41%
N#Cc1ccccc1Nc1nc(N)nc(Cl)n1	-0.999%
CCCCN1CC(C(=O)NCc2ccc(F)cc2)CC1=O (stereo not shown)	-5.43%
O=S(=O)(c1ccc(-c2csc(Nc3ccc(Br)cc3)n2)cc1)N1CCCC1	-6.18%
O=C1NC(=O)/C(=C\c2ccc(F)cc2)N1	18%
NC(=O)CN1C(=O)C(O)(CC(=O)c2ccccc2)c2ccccc21 (stereo not shown)	-2.75%

Compound	% Inhibition @ 10 uM
COc1cccc(OC)c1C(=O)Nc1ccccc1Br	-3.65%
CC(NC(=O)C1CCCN(C(=O)c2cc3sccc3n2C)C1)C12CC3CC(CC(C3)C1)C2 (stereo not shown)	-7.84%
C=CCn1c(SCC#N)nc2sc(CC)cc2c1=O	-3.46%
CN1C(=O)C(S(=O)(=O)c2ccccc2)C2CC1(C)Oc1ccccc12 (stereo not shown)	-4.47%
CCOC(=O)/C(C#N)=C/c1c(Oc2ccc(Cl)c(C)c2)nc2ccccn2c1=O	-4%
Cc1ccc(C(=O)NC(Cc2c[nH]c3ccccc23)C(=O)O)cc1 (stereo not shown)	-5.28%
COc1ccc(-c2nc(O)c3c(n2)Oc2ccc(C)cc2C3)c(OC)c1	5.48%
Cc1cccc(C(=O)Nc2ccc(C(C)C)cc2)c1	-0.192%
CCc1cccc(C)c1NC(=O)CN(c1ccc(Cl)cc1C)S(C)(=O)=O	-0.251%
CCC(C)c1ccc(NC(=O)COc2ccc(F)cc2)cc1 (stereo not shown)	-2.22%
O=C(NCc1nc2ccccc2n1CCOc1ccc(Cl)cc1)c1ccccc1	5.35%
CCCCn1nnnc1NCc1cccnc1	0.776%
CC1CCC(C(=O)NC(Cc2ccccc2)C(=O)NCCc2ccc(S(N)(=O)=O)cc2)CC1 (stereo not shown)	-4.86%
CN(CC(=O)NCc1ccco1)S(=O)(=O)c1ccc(F)cc1	1.19%
Nc1ccc(-c2cc3ccccc3oc2=O)cc1	-7.6%
CCOC(=O)N1CCC(NC(C)c2ccc(F)cc2)CC1 (stereo not shown)	4.82%
O=C(Nc1cccc(Cl)c1Cl)C12CC3CC(CC(C3)C1)C2	-3.79%
C=CCOc1c(Br)cc(Br)cc1/C=C1\SC(N)=NC1=O	-3.92%
NC(=O)c1c2c(nc3ccccc13)CCN(Cc1ccccc1)C2	-3.34%
OC12CCCCC1C(c1ccc(F)cc1F)NCC2 (stereo not shown)	-3.63%
Cc1ccc(C)c(N(CC(=O)NC(C)c2ccccc2)S(C)(=O)=O)c1 (stereo not shown)	-2.54%
Cc1ccc(Cn2c(C)c3cnn(CC(=O)N4CCN(C)CC4)c(=O)c3c2C)cc1	2.84%
Cc1oc(-c2cccc(Cl)c2)nc1CN1CCCC(C(=O)NCCC2=CCCCC2)C1 (stereo not shown)	-4.71%
CCN1CCN(Cc2nc3c(c(=O)n(C)c(=O)n3C)n2CCc2ccccc2)CC1	-5.1%
COc1cc(C2C(C#N)=C(N)Oc3cc(C)nc(O)c32)ccc1OCc1ccc(Cl)cc1 (stereo not shown)	2.31%
CCOc1ccc(C2Nn3c(C)nnc3SC2C(=O)NCc2ccc(OC)cc2)cc1 (stereo not shown)	4.93%

Compound	% Inhibition @ 10 uM
O=C(c1ccco1)N1CCN(c2ccccc2)CC1	-1.88%
O=C(CN1C(=O)C2C3CCC(C3)C2C1=O)Nc1ccccc1 (stereo not shown)	2.76%
CC1CCCC(C)N1C(=O)c1cccc(N)c1 (stereo not shown)	-8.43%
C/C(O)=C\C(C)=N\c1cccc(C(=O)c2ccccc2)c1	-2.8%
Cc1ccnc2nc(NC(=O)c3ccccc3F)nn12	2.05%
Cc1ccc(C2CC(=O)C(/C=N/CCN3CCN(C(=O)C(C)C)CC3)=C(O)C2)cc1 (stereo not shown)	-7.3%
CC1Cc2cc(C(=O)C3=C(O)C(=O)N(CCN(C)C)C3c3cccs3)ccc2O1 (stereo not shown)	-10%
Cc1sc2ncn(CC(=O)NCc3ccc(F)cc3)c(=O)c2c1S(=O)(=O)N1CCC(C)CC1	-1.2%
NC(=O)C1CCN(Cc2ccc(-c3ccccc3)cc2)CC1	0.0792%
CSc1ncc(C(=O)Nc2ccc(Cl)cn2)c(C)n1	-5%
COc1ccc(Br)cc1CN1CCCCC1	4.9%
CCC(C)NC(=O)CCSc1ccc(C)cc1 (stereo not shown)	1.87%
Cc1nc(SCC(=O)Nc2ccc(Cl)cc2)nc2c1CCCC2	6.79%
COc1cc2c(cc1OC)CN(C(=O)CSc1nnc3ccccn13)CC2	0.778%
Cc1ccc(-n2c(CCC(=O)O)ccc2-c2cccs2)cc1	1.31%
CCOc1ccc2nc(NS(=O)(=O)c3ccccc3C)sc2c1	3.91%
CCOc1ccc2c(=O)c(Oc3ccc(C(C)(C)C)cc3)coc2c1	5.5%
CC1CN=C(/C=C(\O)c2ccc(Br)cc2)C(=O)N1 (stereo not shown)	4.09%
O=S(=O)(Nc1ccc(S(=O)(=O)NC2CCCCC2)cc1)c1ccccc1	1.88%
COc1ccc(CCNc2nc(-c3cccnc3)cs2)cc1OC	0.0539%
Cc1cc(C)c(S(=O)(=O)Nc2ccc(O)c(Cl)c2)cc1C	-1.52%
O=C(CCCc1ccccc1)Nc1ccc(C(=O)O)cc1	5.66%
c1ccc2c(c1)nc(NC1CCCCC1)c1nnnn12	-2.47%
CC(=O)c1ccc2[nH]c3c(c2c1)CCCC3=O	-4.18%
CN1CCN(C(=O)c2cnn(-c3ccccc3Cl)c2NC(=O)c2ccco2)CC1	5.49%
OC(Cn1nnnc1-c1ccccc1)Cn1nnnc1-c1ccccc1	1.24%

Compound	% Inhibition @ 10 uM
CC(=O)c1ccc(NC(=O)c2cc3ccccc3oc2=O)cc1	4.33%
O=c1oc2ccccc2c(O)c1Cc1ccccc1	14.5%
COc1cccc(CN2CCN(Cc3ccc(Br)cc3)CC2)c1	-7.93%
COc1ccccc1-c1nnc(C2CCN(S(=O)(=O)c3cccc(Cl)c3)CC2)o1	-1.08%
O=C(COc1ccc([N+](=O)[O-])cc1)NCCc1ccccc1	-1.29%
Cc1ccc(C(CCNC(=O)c2cccs2)c2ccco2)cc1 (stereo not shown)	-0.0735%
CC(O)(C#CCO)c1ccc2ccccc2c1 (stereo not shown)	-0.0372%
COc1ccc(OC)c(CCNC(=O)Cn2sc3nc(C)cc(C)c3c2=O)c1	-1.37%
CCN(CC)CCNC(=O)Cn1nc(C)c2sc3ccccc3c2c1=O	-2.45%
CC1=NC2=C(C(=O)CC(C)(C)C2)C(c2cccc(Cl)c2Cl)/C1=C(\O)OC(C)C (stereo not shown)	-0.445%
COc1ccccc1OCCCn1c(C)c(/C=C2/C(=N)N3C=CSC3=NC2=O)c2ccccc21	3.47%
CSc1nc(C)c(-c2ccncc2)c(-c2cccnc2)c1C#N	-2.45%
O=C(C1CCC(CNS(=O)(=O)c2ccc(Cl)cc2)CC1)N1CCCC1 (stereo not shown)	0.718%
O=C(NCCc1ccccc1)C1CCN(S(=O)(=O)c2ccc3nc(O)ccc3c2)CC1	2.24%
O=C(c1ccccc1SCc1ccc(F)cc1)N1CCOCC1	-0.736%
CCCCN(Cc1ccccc1)C1CCN(C)CC1	-9.33%
Cc1ccc(C2CC(C(F)(F)F)n3ncc(C(=O)NCC4CCCO4)c3N2)cc1 (stereo not shown)	7.93%
Cc1ccc2nc3c(O)n(C)cnc-3c2c1	5.06%
COC(=O)/C(=C(/F)Sc1ccc(O)c(C)c1)C(F)(F)F	-3.41%
Cc1ncc(CO)c2cc(-c3nc4ccncc4[nH]3)c(=O)oc12	-4.58%
Cc1nc2ccccc2n1C(=O)N(C)C	-4.7%
Cc1cc(C)c2nc(N3CCCC(C(=O)NCc4ccc5c(c4)OCO5)C3)sc2c1 (stereo not shown)	4.95%
CCOC(=O)N1CCC(N2CCN(c3ccc(F)cc3)CC2)CC1	-2.95%
Cc1nn(CC(=O)NCCCN2CCc3ccccc3C2)c(=O)c2cc3cc(F)ccc3n12	0.0198%
CCN(CC)CCCNc1ncnc2c1cnn2C	2.88%
